Reference: PubChem BioAssay AID1030 (National Center for Advancing Translational Sciences (NCATS), 2008)
Out of some 220,000 compounds screened, about 16,000 (7.3%) were called active. Inconclusive means that the source gave no clear call. Such entries were picked first, then a sample of the others. Calls follow the shape of the dose curve; as a rule, active = well fitted inhibition curve with a large enough effect (not every such curve was filed as active); inconclusive = small, poorly fitted or top-dose-only effect, or another doubt; inactive = no such curve, though single readings can be large or run the other way. Potencies of inconclusive entries are left out as doubtful fits.

The compounds below were run against Aldehyde dehydrogenase 1A1 (Homo sapiens) (UniProt P00352) (assay: qHTS Assay for Inhibitors of Aldehyde Dehydrogenase 1 (ALDH1A1)). Details: Purified ALDH1A1, NADH fluorescence, propionaldehyde substrate; series mostly up to 75.3 µM.
Potency is read from the fitted curve at half-maximal effect; tags tell the direction and shape of the fitted curve.

UniProt P00352, sequence (P00352 whole entry, looked up): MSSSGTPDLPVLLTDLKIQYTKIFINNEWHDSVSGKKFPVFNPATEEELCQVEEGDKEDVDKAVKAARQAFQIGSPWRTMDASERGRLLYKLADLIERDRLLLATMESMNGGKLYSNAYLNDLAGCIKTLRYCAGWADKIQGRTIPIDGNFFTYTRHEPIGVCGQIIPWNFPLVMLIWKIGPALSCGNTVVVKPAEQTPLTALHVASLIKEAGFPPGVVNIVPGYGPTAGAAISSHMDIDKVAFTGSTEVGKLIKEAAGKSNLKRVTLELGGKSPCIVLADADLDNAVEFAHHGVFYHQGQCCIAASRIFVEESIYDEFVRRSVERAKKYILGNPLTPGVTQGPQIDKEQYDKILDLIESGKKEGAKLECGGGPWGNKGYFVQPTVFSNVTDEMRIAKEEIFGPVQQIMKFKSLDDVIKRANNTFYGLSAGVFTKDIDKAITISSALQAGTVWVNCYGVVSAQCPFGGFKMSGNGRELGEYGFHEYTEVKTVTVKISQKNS

Row | SMILES | Potency
1 | COc1ccccc1N1CCN(C(=O)c2sc3nc(-c4ccc(F)cc4)cn3c2C)CC1 | inactive
2 | CCc1nnc(NC(=O)CSc2ccc(-c3nc4ccccc4[nH]3)cn2)s1 | inconclusive [inhibitor, partial curve]
3 | COCCNC(=O)C(c1c[nH]c2ccccc12)N(C(=O)c1snc(C(N)=O)c1N)c1cccc(OC)c1 (stereo unspecified) | inactive
4 | O=c1[nH]n2c(-c3ccccc3)nc(O)c2c2ccccc12 | inconclusive [inhibitor, partial curve]
5 | O=C(COC(=O)c1nc(Cl)ccc1Cl)Nc1ccccc1OC(F)F | inconclusive [inhibitor, single point]
6 | CC(C)c1cc(CNC(=O)CC2C(=O)NCCN2CC2CCCCC2)on1 (stereo unspecified) | inconclusive [inhibitor, single point]
7 | CC1CCN(C(=O)CNS(=O)(=O)c2ccc(Br)s2)CC1 | active: 8.91 µM
8 | COc1ccc(-c2noc(CCC(=O)N3CCN(Cc4ccccc4)CC3)n2)cc1 | inconclusive [inhibitor, partial curve]
9 | CCOC(=O)c1c(C)[nH]c(C(=O)CN2C(=O)NC(CC)(c3ccccc3)C2=O)c1C (stereo unspecified) | inconclusive [inhibitor, single point]
10 | CN1CCN(c2ncc3nc(-c4cn(C)c5ccccc45)c(=O)n(-c4ccccc4)c3n2)CC1 | inconclusive [inhibitor, single point]
11 | COc1cccc2c(SCC(=O)N/N=C/c3ccc(O)cc3O)cc(C)nc12 | active: 28.2 µM
12 | O=C(/C=C/c1ccco1)NC(=S)Nc1ccc(N2CCCC2)cc1 | inconclusive [inhibitor, single point]
13 | Cc1ccc2c(c1)C(=O)[C@]1(O)CCN(c3ccccc3)C1=N2 | inactive
14 | COc1ccc(CCN2CC(C#N)=C3c4cc(OC)c(OC)cc4CCN3C2)cc1OC | inconclusive [inhibitor, single point]
15 | O=C(CN1CCSCC1)N/N=C/c1ccc(Cl)cc1 | inconclusive [inhibitor, single point]
16 | O=C(c1c(F)cccc1F)N1CCN(c2cccc(C(F)(F)F)c2)CC1 | inconclusive [inhibitor, partial curve]
17 | Nc1cc(Oc2ccc(F)cc2F)cc([N+](=O)[O-])c1 | inactive
18 | COc1ccc(/C=C/C(=O)NC(C)CCc2ccccc2)cc1OC (stereo unspecified) | inconclusive [inhibitor, single point]
19 | CCC(C)N(C)C1CCN(C(=S)Nc2cccc(SC)c2)CC1 (stereo unspecified) | inconclusive [inhibitor, single point]
20 | CCOC(=O)C(=O)Nc1nnc(C2CCCCC2)s1 | active: 31.6 µM
21 | O=C(Nc1ccc2nccnc2c1)c1ccco1 | inconclusive [inhibitor, partial curve]
22 | CC1CCN(C(=O)CSc2nc3ccccc3[nH]2)CC1 | inconclusive [inhibitor, single point]
23 | Cc1ccc(S(=O)(=O)N2CCN(C3CC(=O)N(CCc4ccccc4)C3=O)CC2)cc1C (stereo unspecified) | inconclusive [inhibitor, partial curve]

Row | SMILES | Potency
24 | COc1cc(C(=O)N2CCN(c3ccc(C)cc3C)CC2)cc(OC)c1OC | inactive
25 | CCOC(=O)c1c(/N=C/C2=C(O)CC(C)(C)CC2=O)sc(C)c1C | active: 7.08 µM
26 | COc1ccc(N(Cc2cc3cc(OC)ccc3[nH]c2=O)C(=O)C2CCCO2)cc1 (stereo unspecified) | inconclusive [inhibitor, single point]
27 | O=C(O)c1cccc(Cn2c(Cl)c(/C=N/NC(=O)c3ccccc3O)sc2=O)c1 | inactive
28 | CC(C)(C)c1n[nH]c(=S)n(/N=C/c2cccs2)c1=O | inactive
29 | CCCC(=O)Nc1ccc2oc(-c3ccc(OC)c(Br)c3)nc2c1 | inconclusive [inhibitor, partial curve]
30 | CN1CCN(C(=O)c2ccc(-c3cccs3)s2)CC1 | inconclusive [inhibitor, partial curve]
31 | c1ccc(-n2cnnc2SCc2cn3cccnc3n2)cc1 | inconclusive [inhibitor, partial curve]
32 | CC(c1ccc(C(C)(C)C)cc1)S(=O)CC(O)CO (stereo unspecified) | inactive
33 | O=c1c2ccccc2n2c(-c3ccc(F)cc3)nnc2n1Cc1ccccc1 | inconclusive [inhibitor, single point]
34 | Cn1c(=O)c2c(nc(Br)n2Cc2ccc3ccccc3c2)n(C)c1=O | inconclusive [inhibitor, partial curve]
35 | O[C@@](CCN1CCCC1)(c1ccccc1)C1CCCCC1 | inactive
36 | Cc1cc2c(=O)n(NC(N)=O)c(C)nc2s1 | inactive
37 | CCN(CC)CCOc1ccccc1C(C)=O | inconclusive [inhibitor, single point]
38 | FC(F)(F)c1cccc(NC(=S)Nc2cccc(NC(=S)Nc3cccc(C(F)(F)F)c3)n2)c1 | active: 25.1 µM
39 | COc1ccc(C(=O)/C=C/C(=O)N(CC(=O)NCCC(C)C)Cc2cccs2)c(O)c1 | inconclusive [inhibitor, partial curve]
40 | Cc1cccc(N/N=C(\C=N\N)C(=O)c2ccc(Br)cc2)c1 | inactive
41 | CCOc1ccc(-c2nc(S(=O)(=O)c3ccccc3)c(NCc3cccnc3)o2)cc1 | inconclusive [inhibitor, partial curve]
42 | Cc1ccc(-c2c(C(=O)Nc3ccccc3C)c(C)[nH]c(=S)c2C#N)o1 | inactive
43 | COc1ccc(-c2nc(CCl)cs2)cc1 | inconclusive [inhibitor, single point]
44 | Cc1cc(=O)oc2cc(OCC(=O)OCC(=O)Nc3ccc4ccccc4c3)ccc12 | inconclusive [inhibitor, full curve, poor fit]
45 | Cc1ccc(-c2ccc(CCC(=O)O)n2-c2ccc(O)cc2)cc1 | inactive
46 | CCOc1ccc(N2C(=O)c3cccnc3C2Nc2ccc(OC)cc2)cc1 (stereo unspecified) | inconclusive [inhibitor, single point]
